{"source": "PubChem BioAssay AID504832", "about": "(National Center for Advancing Translational Sciences (NCATS), 2011)", "note": "Several values for one entry are separate records, joined by “and”; a condition that tells them apart may be missing. Identical values can stand only once. Hit rate of the full screen: of about 310,000 compounds, about 18,000 (5.8%) were called active. The inconclusive results got no clear call from the source; some entries with a clear call stand among them for comparison. Calls follow the shape of the dose curve; as a rule, active = well fitted inhibition curve with a large enough effect; inconclusive = small, poorly fitted or top-dose-only effect, or another doubt; inactive = no such curve, though single readings can be large or run the other way. Potencies beside an inconclusive call are fits to weak or partial responses and may not hold up. % is scaled to controls: 0 for no effect and ±100 for the full control effect; potency is read from the fitted curve at half-maximal effect; tags tell the direction and shape of the fitted curve.", "data": [{"assay": "Primary qHTS for delayed death inhibitors of the malarial parasite plastid, 48 hour incubation", "conditions": "P. falciparum luciferase growth in erythrocytes; series mostly up to 28.7 µM; activity change, negative = inhibition: at the top concentration", "summary_of_the_method": "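Compounds are pin-transferred into medium, infected erythrocytes (2% hematocrit, 0.1% parasitemia final) are added, and plates sit one parasite generation at 37 C in 5% CO2. Detection reagent is then added and luminescence measured.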", "values": [{"smiles": "Cc1ccc(C2=NN(C(=O)CSc3nnnn3C)C(c3ccco3)C2)cc1", "note": "(configuration not stated)", "Potency": "inconclusive: 18.5 µM [inhibitor, single point]"}, {"smiles": "O=C(CNCc1ccccn1)N1CCc2ccccc2C1", "Potency": "inconclusive: 20.8 µM [inhibitor, single point]"}, {"smiles": "O=C(Nc1cccc(-c2nnn(CC(=O)N3CCc4ccccc4C3)n2)c1)C1CCC1", "Potency": "inconclusive: 18.5 µM [inhibitor, single point]"}, {"smiles": "COc1ccc(N2CCN(CCCNC(=O)CN3CCN(Cc4ccccc4C)C3=O)CC2)cc1", "Potency": "inconclusive: 11.7 µM [inhibitor, single point]"}, {"smiles": "CCN1CCCC(NC(=O)c2cc([N+](=O)[O-])ccc2OC)C1", "note": "(configuration not stated)", "activity change, negative = inhibition": "inactive: 1.55%"}, {"smiles": "COc1cc(NC(=O)CN2CCN(c3ccccc3O)CC2)c(C)cc1[N+](=O)[O-]", "Potency": "inconclusive: 10.4 µM [inhibitor, single point]"}, {"smiles": "O=C(O)/C=C/C(=O)OC1CC2CCC1C2", "note": "(configuration not stated)", "activity change, negative = inhibition": "inactive: -2.37%"}, {"smiles": "CC(C)C(C(=O)NCc1ccco1)N(C(=O)CNS(=O)(=O)c1ccc(Cl)cc1)C1CCCC1", "note": "(configuration not stated)", "Potency": "inconclusive: 14.7 µM [inhibitor, single point]"}, {"smiles": "O=C1N/C(=N\\N=C\\c2ccco2)SC1Cc1ccc(F)cc1", "note": "(configuration not stated)", "Potency": "inconclusive: 18.5 µM [inhibitor, partial curve, poor fit]"}, {"smiles": "CN1CCc2c(sc(NC(=O)Cc3ccccc3)c2C(N)=O)C1", "activity change, negative = inhibition": "inactive: 1.13%"}, {"smiles": "Cc1ccsc1-c1nc(CN2CCCC2c2ccc(F)cc2)c(C)o1", "note": "(configuration not stated)", "Potency": "inconclusive: 16.5 µM [inhibitor, single point]"}, {"smiles": "Cc1cc(C)c(S(=O)(=O)NCC(c2ccc3c(c2)OCO3)N2CCOCC2)c(C)c1", "note": "(configuration not stated)", "Potency": "inconclusive: 11.7 µM [inhibitor, single point]"}, {"smiles": "Cc1ccc(N2CC(C(=O)Nc3ccc4c(c3)OCCO4)CC2=O)cc1C", "note": "(configuration not stated)", "activity change, negative = inhibition": "inactive: 47.2%"}, {"smiles": "c1ccc(-n2nnc3ccccc32)cc1", "activity change, negative = inhibition": "inactive: 34.4%"}, {"smiles": "O=C(/C=C/c1ccccc1Cl)NNC(=O)c1cccs1", "activity change, negative = inhibition": "inactive: 1.32%"}, {"smiles": "Cc1ccc(NC(=O)c2cc(S(=O)(=O)N(C)C)ccc2N2CCCC2)cc1S(=O)(=O)N(C)C", "Potency": "inconclusive: 11.7 µM [inhibitor, single point]"}, {"smiles": "COc1ccc(CCNC(=O)c2ccc(CN3CCC(Cc4ccccc4)CC3)cc2)cc1OC", "Potency": "inconclusive: 18.5 µM [inhibitor, single point]"}, {"smiles": "CCOc1ccc(N(C)S(=O)(=O)c2ccc3[nH]cc(C(=O)NCCOC)c(=O)c3c2)cc1", "Potency": "inconclusive: 3.7 µM [inhibitor, partial curve]"}, {"smiles": "C=CCn1c(SCc2ccc(C(=O)NCCO)cc2)nc2ccccc2c1=O", "Potency": "inconclusive: 18.5 µM [inhibitor, single point]"}, {"smiles": "CC(OC(=O)c1ccc(Cl)nc1)C(=O)NC(C)(C)C", "note": "(configuration not stated)", "Potency": "inconclusive: 0.37 µM [inhibitor, partial curve, poor fit]"}, {"smiles": "CC(c1ccccc1)N(C)C(=O)CN1CCN(S(=O)(=O)c2ccc3c(c2)OCCCO3)CC1", "note": "(configuration not stated)", "Potency": "inconclusive: 18.5 µM [inhibitor, single point]"}, {"smiles": "CCN1C(=NCc2cccc(Cl)c2)N[C@@H](c2cccc(F)c2)C(C(=O)OC)=C1C", "Potency": "inconclusive: 370 nM [inhibitor, partial curve, poor fit] and inconclusive: 16.5 µM [inhibitor, partial curve, poor fit]"}, {"smiles": "Cc1csc(NC(=O)c2cc(-c3ccccc3)nc3ccccc23)n1", "Potency": "inconclusive: 18.5 µM [inhibitor, single point]"}, {"smiles": "O=C(COC(=O)c1ccccc1Br)Nc1ccccc1F", "activity change, negative = inhibition": "inactive: 2.65%"}, {"smiles": "CCCNC(=S)NNC(=O)c1cc(C2CC2)nc2ccccc12", "Potency": "inconclusive: 11.7 µM [inhibitor, single point]"}, {"smiles": "Cc1c(-c2ccccc2)oc2c(C(=O)N3CCN(c4ccc([N+](=O)[O-])cc4)CC3)cccc2c1=O", "Potency": "inconclusive: 5.22 µM [inhibitor, partial curve]"}, {"smiles": "C/C=C/C(=O)N1CC2(CC(c3cccc(NC(=O)COc4ccc(Cl)cc4)c3)=NO2)C[C@@H]1C(N)=O", "note": "(some centres not stated)", "Potency": "active: 13.1 µM"}, {"smiles": "CCOc1ccccc1-n1c(SCC(=O)NC2CCCC2)nnc1-c1ccoc1C", "Potency": "inconclusive: 11.7 µM [inhibitor, partial curve]"}, {"smiles": "COc1cc(Cn2nnc3ccccc32)cc(Br)c1O", "Potency": "inconclusive: 0.329 µM [inhibitor, full curve, poor fit]"}, {"smiles": "COc1ccc(-c2nnc(SCC(=O)c3[nH]c(C)c(C(C)=O)c3C)o2)cc1", "Potency": "inconclusive: 10.4 µM [inhibitor, single point]"}, {"smiles": "O=S(=O)(c1ccc(Cl)cc1)N1CCN(Cc2ccc(O)c3ncccc23)CC1", "Potency": "active: 1.85 µM"}, {"smiles": "CCOC(=O)Cc1cn2c(=O)cc(CSCC(=O)Nc3ccc(C)c(C)c3)nc2s1", "Potency": "inconclusive: 0.0026 µM [inhibitor, full curve, poor fit]"}, {"smiles": "O=C(O)Cn1cc(/C=N/Nc2ccc([N+](=O)[O-])cn2)c2ccccc21", "activity change, negative = inhibition": "inactive: 17.9%"}, {"smiles": "CCOC(=O)N1CCC(NC(=O)c2ccc(OC)c(CN3CC(=O)N4CCCC4C3=O)c2)CC1", "note": "(configuration not stated)", "Potency": "inconclusive: 10.4 µM [inhibitor, partial curve, poor fit]"}, {"smiles": "Cc1onc(-c2ccccc2Cl)c1C(=O)Nc1ccc(-n2nncc2-c2ccco2)cc1", "Potency": "inconclusive: 18.5 µM [inhibitor, single point]"}, {"smiles": "O=[N+]([O-])c1ccc(N2CCCCC2)nc1N1CCCCC1", "Potency": "active: 2.08 µM"}, {"smiles": "CCN(CC)c1nc(Oc2ccc(=O)[nH]n2)nc(N2CCOCC2)n1", "activity change, negative = inhibition": "inactive: -10.2%"}, {"smiles": "COCCOC(=O)C1=C(C)N(c2ccccc2)C(=O)NC1c1cccc([N+](=O)[O-])c1", "note": "(configuration not stated)", "Potency": "inconclusive: 10.4 µM [inhibitor, partial curve]"}, {"smiles": "Cn1ncc(Br)c1C(=O)NC1CCCCCCC1", "activity change, negative = inhibition": "inactive: 2.39%"}, {"smiles": "CC(Nc1ccc(N2CCOCC2)cc1)C(=O)N1c2ccccc2CC1C", "note": "(configuration not stated)", "Potency": "inconclusive: 7.38 µM [inhibitor, partial curve]"}, {"smiles": "CC(C)c1ccc(/C=C/C(=O)Nc2ccc(CN3CCOCC3)cc2)cc1", "Potency": "inconclusive: 9.28 µM [inhibitor, single point]"}, {"smiles": "COCc1cc(CN2CCCC(C(=O)Nc3ccc(-c4ccco4)cc3)C2)ccc1OC", "note": "(configuration not stated)", "Potency": "inconclusive: 1.47 µM [inhibitor, partial curve, poor fit]"}]}]}
